Reference: the supplement of paper PMC8183993
“And” between values parts separate entries of the source, which are not always exact repeats. Identical values can stand only once. Counter-ions that a name gives are not always drawn. ± gives the standard deviation of the averaged measurements. Over roughly 3,100 compounds, “mean cytoplasmic OPP incorporation (global translation) relative to DMSO” has its median near 100; the lowest 2% begin near 56. The list shows a part of the results.

What follows are compounds tested on U2OS (assay: mean cytoplasmic OPP incorporation (global translation) relative to DMSO (% of DMSO); higher = more protein synthesis). Conditions: 10 µM; 24 h.
Protocol: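 Primary image-based screen in U2OS cells: compounds at 10 uM for 24 h, then a 1 h o-propargyl-puromycin (OPP) pulse, click labelling, and high-throughput microscopy. Mean cytoplasmic OPP intensity and nuclei count were normalised to DMSO wells within each plate (DMSO = 100) and averaged over triplicate plates.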

SMILES	mean cytoplasmic OPP incorporation
c1ccc2c(Cc3c[nH]c4ccccc34)c[nH]c2c1 [Diindolylmethane]	93.7
CCC(=O)N1CCN(c2ccc(-n3c(=O)ccc4cnc5ccc(-c6cnc7ccccc7c6)cc5c43)cc2C(F)(F)F)CC1 [Torin 1]	73
CO/N=C(\C(=O)N[C@@H]1C(=O)N2C(C(=O)OCOC(=O)C(C)(C)C)=C(/C=C\c3scnc3C)CS[C@H]12)c1csc(N)n1 [Cefditoren pivoxil]	105
COc1ccc(-n2[nH]c3c4c(ncc3c2=O)CCCCC4)cc1	92.9
N=C(N)c1ccc(OCCCCCOc2ccc(C(=N)N)cc2)cc1 [Pentamidine]	104
N=C(N)c1ccc(OCCCCCOc2ccc(C(=N)N)cc2)cc1 [Pentamidine isethionate]	98.4
CCCCC(=O)O[C@H]1CC[C@H]2[C@@H]3CCc4cc(O)ccc4[C@H]3CC[C@]12C [Estradiol Valerate]	95.6
CCCCC(=O)O[C@H]1CC[C@H]2[C@@H]3CCc4cc(O)ccc4[C@H]3CC[C@]12C [Estradiol valerate]	101
O=[N+]([O-])c1ccccc1S(=O)(=O)NCC1CCC(CNCC2CCc3ccccc3C2)CC1 (stereo unspecified) [NTNCB hydrochloride]	114
N#Cc1c(O)c2c(-c3ccc(-c4ccccc4O)cc3)csc2[nH]c1=O	97.1 and 94
O=C(O)c1cc(O)c2c(c1)C(=O)c1cccc(O)c1C2=O [Rhein (Monorhein)]	109
Cc1ccc(Nc2c(F)cccc2Cl)c(CC(=O)O)c1 [Lumiracoxib (COX-189)]	103
O=c1cc(-c2cccc3c2Sc2ccccc2S3)oc(N2CCOCC2)c1	102 and 108
Oc1ccc([C@H]2COc3cc(O)ccc3C2)cc1 [Equol]	99.8
Fc1ccc(C(c2ccc(F)cc2)N2CCN(C/C=C/c3ccccc3)CC2)cc1 [Flunarizine dihydrochloride]	107 ± 4.4
Nc1nc(Cl)nc2c1ncn2[C@H]1C[C@H](O)[C@@H](CO)O1 [Cladribine]	79.8
CN[C@@H]1[C@H](O[C@H]2[C@H](O[C@H]3[C@H](O)[C@@H](O)[C@H](N=C(N)N)[C@@H](O)[C@@H]3N=C(N)N)O[C@@H](C)[C@]2(O)C=O)O[C@@H](CO)[C@H](O)[C@H]1O [Streptomycin sulfate]	98.1 ± 3.8
N=C(N)NC(=N)Nc1ccccc1 [1-Phenylbiguanide hydrochloride]	97.1
NCCNC(=O)c1ccc(Cl)cn1 [Lazabemide hydrochloride]	104
O=C([C@@H](Cc1cccc(C(F)(F)F)c1)NS(=O)(=O)c1cc(F)c2c(c1)CCNC2)N1CCCC1	112
COc1cccc2c1C(=O)c1c(O)c3c(c(O)c1C2=O)C[C@@](O)(C(=O)CO)C[C@@H]3O[C@H]1C[C@H](N)[C@H](O)[C@H](C)O1 [Doxorubicin (Adriamycin)]	67.1
COc1cccc2c1C(=O)c1c(O)c3c(c(O)c1C2=O)C[C@@](O)(C(=O)CO)C[C@@H]3O[C@H]1C[C@H](N)[C@H](O)[C@H](C)O1 [Doxorubicin hydrochloride]	54.8 ± 17
CCC(=O)O[C@@H](O[P@](=O)(CCCCc1ccccc1)CC(=O)N1C[C@H](C2CCCCC2)C[C@H]1C(=O)O)C(C)C [Fosinopril]	96.7

SMILES	mean cytoplasmic OPP incorporation
CCC(=O)O[C@@H](O[P@](=O)(CCCCc1ccccc1)CC(=O)N1C[C@H](C2CCCCC2)C[C@H]1C(=O)O)C(C)C [Fosinopril sodium (Monopril)]	102
CC(C)N1Cc2cc(S(C)(=O)=O)ccc2N(CCN2CC=C(c3c[nH]c4cc(F)ccc34)CC2)S1(=O)=O	106
CC1(C)S[C@@H]2[C@H](NC(=O)[C@H](N)c3ccc(O)cc3)C(=O)N2[C@H]1C(=O)O [Amoxicillin]	96.9
CC1(C)S[C@@H]2[C@H](NC(=O)[C@H](N)c3ccc(O)cc3)C(=O)N2[C@H]1C(=O)O [Amoxicillin (Amoxycillin)]	106
CC1(C)S[C@@H]2[C@H](NC(=O)[C@H](N)c3ccc(O)cc3)C(=O)N2[C@H]1C(=O)O [Amoxicillin sodium (Amox)]	100
COc1cc(-c2cn(C)c(=O)c3cnccc23)c(OC)cc1CN(C)C	95.8
Cn1cnc2c(NCc3ccccc3)nc(NCCO)nc21 [Olomoucine]	99.9
Cc1cc(C(=O)NOCCO)c(Nc2ccc(I)cc2F)n(C)c1=O	90.6
OCCOCCN1CCN(C2=Nc3ccccc3Sc3ccccc32)CC1 [Quetiapine hemifumarate]	123
NCCNCCNCCNCCN [Tetraethylenepentamine pentahydrochloride]	109
Clc1cnccn1 [2-Chloropyrazine]	113
Nc1nc2c(ncn2[C@@H]2O[C@H](CO)[C@@H](O)[C@H]2O)c(=O)[nH]1 [Guanosine]	106
Cc1cc2c(cc1S(N)(=O)=O)S(=O)(=O)CCC2 [Meticrane]	99.5
CCn1c2ccccc2c2cc(Nc3ccnc(NCCCN4CCOCC4)n3)ccc21	131
O=C1[C@H](Cc2ccc(O)cc2)N2C(=O)CCN(C(=O)NCc3ccccc3)[C@H]2CN1Cc1cccc2ccccc12	111
COC(=O)Nc1nc2cc(C(=O)c3ccccc3)ccc2[nH]1 [Mebendazole]	76
CC1(C)S[C@@H]2[C@H](NC(=O)[C@H](NC(=O)N3CCNC3=O)c3ccccc3)C(=O)N2[C@H]1C(=O)O [Azlocillin sodium salt]	100.3 ± 0.98
CCOC(=O)[C@H](CCc1ccccc1)N[C@@H](C)C(=O)N1Cc2ccccc2C[C@H]1C(=O)O [Quinapril HCl]	103
CC(CCc1ccccc1)NCC(O)c1ccc(O)c(C(N)=O)c1 (stereo unspecified) [Labetalol hydrochloride]	102
O=C(O)c1cccnc1Nc1cccc(C(F)(F)F)c1 [Niflumic acid]	93.2 ± 6
Cc1oncc1C(=O)Nc1ccc(C(F)(F)F)cc1 [Leflunomide]	101 ± 3.8
O=c1[nH]c2cc(C(F)(F)F)c(N3CCOCC3)cc2n(CP(=O)(O)O)c1=O	101
COc1ccc(C(Cl)=C(c2ccc(OC)cc2)c2ccc(OC)cc2)cc1 [Chlorotrianisene]	91.4
